Measurements as given in PubChem BioAssay AID894 (National Center for Advancing Translational Sciences (NCATS), 2007).
“And” between values parts separate entries of the source, which are not always exact repeats. Identical values can stand only once. Screen size: about 150,000 compounds; about 6,500 (4.3%) were called active. Inconclusive means that the source gave no clear call. Such entries were picked first, then a sample of the others. The call rests on the fitted dose curve; in most records, active means well fitted inhibition curve with a large enough effect (not every such curve was filed as active); inconclusive means small, poorly fitted or top-dose-only effect, or another doubt; inactive means no such curve, though single readings can be large or run the other way. Where the call is inconclusive, the potency comes from a doubtful curve fit.

The compounds below were run against 15-hydroxyprostaglandin dehydrogenase [NAD(+)] (Homo sapiens) (UniProt P15428) (assay: qHTS Assay for Inhibitors of HPGD (15-Hydroxyprostaglandin Dehydrogenase)). Details: purified HPGD, NADH fluorescence kinetic, PGE2 substrate; activity change, negative = inhibition: stronger effect = lower value.
Outline: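 NADH formation kinetics: reaction with 30 uM PGE2 and 1 mM NAD+ (final), 20 nM enzyme, Tris-HCl pH 8 with Tween 20, after 15 min compound preincubation at room temperature. Fluorescence change, last versus first of five reads.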
On the % scale 0 is the no-effect control and ±100 the full control effect; potency means the concentration at half of the fitted maximal effect; tags describe the fitted curve by direction and shape.

Chain of UniProt P15428 (P15428 whole entry, looked up): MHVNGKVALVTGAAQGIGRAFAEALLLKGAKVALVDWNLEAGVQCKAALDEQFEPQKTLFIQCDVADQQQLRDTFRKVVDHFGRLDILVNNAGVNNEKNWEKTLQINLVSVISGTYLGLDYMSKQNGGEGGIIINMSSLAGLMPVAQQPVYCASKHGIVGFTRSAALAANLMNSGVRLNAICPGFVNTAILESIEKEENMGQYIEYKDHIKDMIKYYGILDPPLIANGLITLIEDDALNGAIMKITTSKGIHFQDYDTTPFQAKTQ

| Structure (SMILES) | Potency | activity change, negative = inhibition |
| --- | --- | --- |
| Cc1ccc(S(=O)(=O)c2n[nH]n3c2nc(=O)c2ccccc23)cc1 | inconclusive: 15.8 µM [inhibitor, partial curve] |  |
| Cc1nc(N2CCOCC2)c2nc(-c3ccccc3)n(CCCN3CCCCC3C)c2n1 (stereo not given) | inconclusive: 22.4 µM [inhibitor, partial curve] |  |
| COc1ccc(/C=C/C(=O)c2ccncc2)c2ccccc12 | inconclusive: 39.8 µM [inhibitor, single point] |  |
| Cc1cccc(Nc2ccccc2C(=O)OCC(=O)NCc2ccco2)c1C | inconclusive: 31.6 µM [inhibitor, partial curve] |  |
| CC(C)CCNC(=O)CSc1nnc(-c2ccc(S(=O)(=O)N3CCCC3)cc2)n1C | inconclusive: 35.5 µM [inhibitor, partial curve] |  |
| Cc1ccc(COc2ccsc2-c2n[nH]c(=S)n2C)cc1 | inconclusive: 20 µM [inhibitor, partial curve] |  |
| O=C(OC1CCOC1=O)c1cc(-c2ccc(Cl)cc2)nc2ccccc12 (stereo not given) | inconclusive: 31.6 µM [inhibitor, partial curve] |  |
| COC(=O)CN1C2(C#N)CCCCC2CC2CCCCC21C#N (stereo not given) |  | inactive: -7.69% |
| CCOC(=O)c1ccc(NC(=O)CCC(=O)OC)cc1 |  | inactive: -27.7% |
| Cc1ccc2nc(CSc3nnc(Nc4ccccc4C)s3)cc(=O)n2c1 | inconclusive: 25.1 µM [inhibitor, partial curve, poor fit] |  |
| COc1cc(N=c2ssnc2Cl)cc(OC)c1 | active: 0.631 µM |  |
| CCOc1ccc(-c2n[nH]c(C)c2Oc2ccc(OC)cc2)c(O)c1 |  | inactive: -18.9% |
| O=C(CSc1ncn[nH]1)c1ccco1 | active: 25.1 µM |  |
| O=C(NC1CCCCC1)c1nc2c(nnn2Cc2ccccc2Cl)c(=O)[nH]1 | active: 4.47 µM |  |
| O=C(c1ccc2nc(-c3ccco3)c(-c3ccco3)nc2c1)N1CCN(c2ccccc2)CC1 | inconclusive: 15.8 µM [inhibitor, partial curve] |  |
| CCN(CC)c1ccc(/C=N/NC(=O)Cc2cccs2)cc1 | inconclusive: 22.4 µM [inhibitor, partial curve] |  |
| CSC(=S)N(C)C1CCS(=O)(=O)C1 (stereo not given) |  | inactive: 4.23% |
| CCC(C)NC(=O)c1ccccc1NC(=O)COc1ccc(OC)cc1 (stereo not given) |  | inactive: -8.5% |
| O=C(CSc1nc(O)cc(=O)n1-c1ccccc1)NC1CCCCC1 |  | inactive: -13.8% |
| COc1ccc(OC)c(N=c2oc3cc(O)ccc3cc2C(N)=O)c1 | inconclusive: 15.8 µM [inhibitor, partial curve] |  |
| COc1cccc(/C=C/C(=O)c2ccc[nH]2)c1 | inconclusive: 20 µM [inhibitor, partial curve] |  |
| COc1ccc(-n2c(NC(=O)c3ccc(Br)o3)c(C#N)c3nc4ccccc4nc32)cc1 | inconclusive: 28.2 µM [inhibitor, partial curve] |  |
| O=C(CCC1CCCC1)NCc1cccs1 |  | inactive: -27.1% |

| Structure (SMILES) | Potency | activity change, negative = inhibition |
| --- | --- | --- |
| O=C(O)c1ccc(C(=O)Nc2cccc(NC(=O)C3CCCO3)c2)cc1 (stereo not given) | active: 22.4 µM |  |
| Cc1ccc(C(=O)Nc2sc3c(c2C(=O)O)CCCCC3)o1 | active: 14.1 µM |  |
| O=C(NCc1cccnc1)C1c2ccccc2C(=O)N1C1CCCC1 (stereo not given) |  | inactive: -3.75% |
| Cc1ccccc1CS(=O)(=O)c1cnc2ccccc2n1 |  | inactive: -12.9% |
| Nc1ncnc2nc(-c3ccc(N4CCOCC4)nc3)cc(-c3cccc(Br)c3)c12 | inconclusive: 28.2 µM [inhibitor, partial curve] |  |
| Cc1cccc(C2=NN(c3ccc(Br)cc3)[C@@H](C(=O)N3CCOC3=O)[C@@H]2c2ccc(F)cc2)c1 | inconclusive: 10 µM [inhibitor, partial curve] and inconclusive: 28.2 µM [inhibitor, partial curve] |  |
| CCOc1ccc(-c2nc(C#N)c(NC3CC3)o2)cc1 | inconclusive: 7.94 µM [inhibitor, partial curve] |  |
| CN(Cc1ccco1)c1ncnc2ccc(-c3cccnc3)cc12 | inconclusive: 3.55 µM [inhibitor, full curve] |  |
| COCCCNCCCCOc1c(Cl)cc(C)cc1Br |  | inactive: -6.26% |
| CCOC(=O)N1CCC2(CC1)CC(=O)c1c(ccc3oc(C(=O)O)c(C)c13)O2 | inconclusive: 31.6 µM [inhibitor, partial curve] |  |
| CCCC(=O)Nc1ccc2c(c1)C(=O)N(CCC(=O)O)C2=O | inconclusive: 28.2 µM [inhibitor, partial curve] |  |
| CC1CCN(C(=O)c2ccc(NC(=O)C3CCCO3)cc2)CC1 (stereo not given) | active: 0.708 µM |  |
| COc1cccc2c1C(=O)c1c(O)c3c(c(O)c1C2=O)C[C@](O)(C(C)=O)C[C@H]3O[C@@H]1C[C@H](N)[C@H](O)[C@H](C)O1 |  | inactive: -9.11% |
| COCCCn1c(SCC(=O)n2c(C)c(C)c3ccccc32)nnc1-c1ccoc1C |  | inactive: -10.6% |
| Cc1cc(Oc2ccccc2)nc(-c2ccccc2)n1 | inconclusive: 7.08 µM [inhibitor, single point] |  |
| CCc1nnc(NC(=O)CCC(=O)N2CCN(c3ccccn3)CC2)s1 | inconclusive: 15.8 µM [inhibitor, partial curve] |  |
| c1ccc(-c2ccnc3nc(-n4cccc4)nn23)cc1 | inconclusive: 35.5 µM [inhibitor, partial curve] |  |
| CC1CCCN(C(=O)CSc2nc3ccccc3o2)C1 (stereo not given) | active: 12.6 µM |  |
| CCCOc1ccccc1C1C(C(=O)OC)=CN(C(C)C)C=C1C(=O)OC | inconclusive: 20 µM [inhibitor, partial curve] |  |
| O=C(CCC1COc2ccccc2O1)NCc1ccco1 (stereo not given) | inconclusive: 12.6 µM [inhibitor, partial curve] |  |
| COc1ccccc1NC(=O)N(Cc1cc2cc(OC)c(OC)cc2[nH]c1=O)CC1CCCO1 (stereo not given) | inconclusive: 25.1 µM [inhibitor, partial curve] |  |
| CC(C)(C)n1cnc2cc(NS(=O)(=O)c3ccccc3)ccc21 | inconclusive: 25.1 µM [inhibitor, partial curve, poor fit] |  |
